{
  "source": "PubChem BioAssay AID1645882",
  "about": "(National Center for Advancing Translational Sciences (NCATS), 2021)",
  "note": "The campaign covered roughly 16,000 compounds. About 120 (0.75%) were called active. Inconclusive results (about 4%) are left out. Calls come from the whole dose curve; as a rule, active = well fitted inhibition curve with a large enough effect; inconclusive = small, poorly fitted or top-dose-only effect; inactive = no such curve, though single readings can be large or run the other way. The list shows a part of the results. Potency is the fitted concentration of half-maximal effect.",
  "data": [
    {"target": "Rap guanine nucleotide exchange factor 3 (Homo sapiens) (UniProt O95398)", "sequence (O95398 whole entry, looked up)": "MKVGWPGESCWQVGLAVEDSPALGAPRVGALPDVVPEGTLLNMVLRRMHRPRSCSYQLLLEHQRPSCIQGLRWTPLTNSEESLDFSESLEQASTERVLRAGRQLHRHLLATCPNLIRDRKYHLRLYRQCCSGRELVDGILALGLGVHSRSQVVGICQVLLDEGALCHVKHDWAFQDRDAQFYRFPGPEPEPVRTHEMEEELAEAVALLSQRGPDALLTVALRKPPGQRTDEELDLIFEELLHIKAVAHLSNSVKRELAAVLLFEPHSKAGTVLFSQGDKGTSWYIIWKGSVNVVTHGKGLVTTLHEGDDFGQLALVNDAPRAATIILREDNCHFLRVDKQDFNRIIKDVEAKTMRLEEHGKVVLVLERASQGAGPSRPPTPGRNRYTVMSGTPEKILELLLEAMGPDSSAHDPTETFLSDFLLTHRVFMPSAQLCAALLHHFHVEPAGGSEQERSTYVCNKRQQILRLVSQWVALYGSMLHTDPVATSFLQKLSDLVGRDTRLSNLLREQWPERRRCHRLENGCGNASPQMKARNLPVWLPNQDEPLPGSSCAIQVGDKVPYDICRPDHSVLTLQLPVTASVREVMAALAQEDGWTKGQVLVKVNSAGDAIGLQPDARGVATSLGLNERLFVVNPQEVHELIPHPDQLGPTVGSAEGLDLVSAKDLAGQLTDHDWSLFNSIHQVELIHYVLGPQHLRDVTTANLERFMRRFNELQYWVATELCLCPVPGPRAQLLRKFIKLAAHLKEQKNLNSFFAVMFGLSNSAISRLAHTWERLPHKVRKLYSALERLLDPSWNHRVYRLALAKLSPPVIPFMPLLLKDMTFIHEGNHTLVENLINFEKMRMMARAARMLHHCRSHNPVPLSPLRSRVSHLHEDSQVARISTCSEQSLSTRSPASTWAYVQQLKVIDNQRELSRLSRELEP", "assay": "Validation qHTS for antagonist of cAMP-regulated guanine nucleotide exchange factor 3 (EPAC1); note: nearly all actives have a fitted effect of over 75% in size;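 for activity change, negative = inhibition: plate controls were DMSO for no effect and ATA control for full effect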", "settings": "EPAC1 Rap1B-BODIPY-GDP exchange, fluorescence; series mostly up to 150 µM; activity change, negative = inhibition: at the top concentration", "procedure,_shortened": "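Nucleotide exchange followed as fluorescence loss when BODIPY-GDP leaves Rap1B (480 nm excitation, 540 nm emission), read at 5 min intervals over 30 min. Reaction: 100 nM EPAC1, 250 nM RAP1B-BODIPY-GDP, 50 uM GDP; ATA and DMSO define normalization.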", "values": [
      {"smiles": "O=C1CC(c2ccc(O)cc2)Oc2cc(O)cc(O)c21", "note": "(configuration not stated)", "activity change, negative = inhibition": "inactive"},
      {"smiles": "CN1CCN(c2ncc3nc(CCc4ccccc4)c(=O)n(CCC#N)c3n2)CC1", "activity change, negative = inhibition": "inactive: 2.36%"},
      {"smiles": "O=C(c1cnccn1)N1CCC2(CCCN(C(c3ccccc3)c3ccccc3)C2)CC1", "activity change, negative = inhibition": "inactive: 10.9%"},
      {"smiles": "Cc1cn([C@H]2C=C[C@@H](CO)O2)c(=O)[nH]c1=O", "activity change, negative = inhibition": "inactive"},
      {"smiles": "CC(=O)N1CCC2(CCCN(c3ccccc3)C2)CC1", "activity change, negative = inhibition": "inactive: 6.16%"},
      {"smiles": "CC[C@H](C)[C@@H]1NC(=O)[C@H](Cc2ccc(O)cc2)NC(=O)[C@@H](N)CSSC[C@@H](C(=O)N2CCC[C@H]2C(=O)N[C@@H](CC(C)C)C(=O)NCC(N)=O)NC(=O)[C@H](CC(N)=O)NC(=O)[C@H](CCC(N)=O)NC1=O", "activity change, negative = inhibition": "inactive: 24.5%"},
      {"smiles": "CS(=O)(=O)N1CCC2(CCCN(c3ccncc3)C2)CC1", "activity change, negative = inhibition": "inactive: -1.36%"},
      {"smiles": "CC(=O)NS(=O)(=O)c1ccc(N)cc1", "activity change, negative = inhibition": "inactive"},
      {"smiles": "CCc1cccc(N(C)C(N)=Nc2cccc3ccccc23)c1", "activity change, negative = inhibition": "inactive"},
      {"smiles": "Cc1noc(C)c1C(=O)N1CCC[C@@]2(CCN(c3cccc(-c4ccccc4)c3)C2)C1", "activity change, negative = inhibition": "inactive: 11.6%"},
      {"smiles": "FC(F)(F)c1ccccc1-c1cncnc1-n1ccnc1", "activity change, negative = inhibition": "inactive: 7.03%"},
      {"smiles": "CS(=O)(=O)Nc1cccc(-c2cncnc2Nc2ccc(F)cc2)c1", "activity change, negative = inhibition": "inactive: 2.68%"},
      {"smiles": "C=C1CC[C@@H]2[C@](C)(CO)[C@H](O)CC[C@@]2(C)[C@@H]1C/C=C1/C(=O)OC[C@H]1O", "activity change, negative = inhibition": "inactive: 18.7%"},
      {"smiles": "Cc1c(C(=O)N(CCO)C(C)C)cnn1-c1ncc2c(n1)-c1ccccc1CCC2", "activity change, negative = inhibition": "inactive: 5.34%"},
      {"smiles": "COc1ccc(-c2nc3cnc(N(C)C)nc3n(-c3ccccc3)c2=O)cc1", "activity change, negative = inhibition": "inactive: 64.3%"},
      {"smiles": "CCN(CC)CCN(C)c1ccc(/C=C/c2ccnc3ccccc23)cc1", "activity change, negative = inhibition": "inactive: 17%"},
      {"smiles": "Brc1ccc2c(ccc[n+]2CCc2ccccc2)c1", "activity change, negative = inhibition": "inactive: 25.3%"},
      {"smiles": "Ic1ccc(N2CCN(Cc3c[nH]c4ncccc34)CC2)cc1", "activity change, negative = inhibition": "inactive"},
      {"smiles": "CCCN(CC)C(CC)C(=O)Nc1c(C)cccc1C", "note": "(configuration not stated)", "activity change, negative = inhibition": "inactive: -0.504%"},
      {"smiles": "COc1cc(=O)n2c(c1C(=O)NCc1ccco1)CCN(Cc1cc3ccccc3[nH]1)CC2", "activity change, negative = inhibition": "inactive: 10.5%"},
      {"smiles": "Nc1ncnc2c1nc(Br)n2C1OC2COP(=O)(O)O[C@@H]2C1O", "note": "(some centres not stated)", "Potency": "active: 708 nM"},
      {"smiles": "OCc1ccccc1O[C@@H]1O[C@H](CO)[C@@H](O)[C@H](O)[C@H]1O", "activity change, negative = inhibition": "inactive: 14.4%"},
      {"smiles": "CNc1nc(-c2ccccc2C(F)(F)F)nc2ccccc12", "activity change, negative = inhibition": "inactive: 2.64%"},
      {"smiles": "O=C(O)[C@H]1CN(C/C=C/P(=O)(O)O)CCN1", "activity change, negative = inhibition": "inactive: 15.5%"},
      {"smiles": "N#Cc1cccc(-c2cncnc2NCc2cccnc2)c1", "activity change, negative = inhibition": "inactive: 2.16%"},
      {"smiles": "CNc1nc(-c2cccc(NS(C)(=O)=O)c2)nc2ccccc12", "activity change, negative = inhibition": "inactive: 9.01%"},
      {"smiles": "CC1(C)N=C(N)N=C(N)N1c1ccc(Cl)cc1", "activity change, negative = inhibition": "inactive: 23.9%"},
      {"smiles": "C[C@@H](NCCc1ccc(O)cc1)[C@@H](O)c1ccc(O)cc1", "activity change, negative = inhibition": "inactive: -5.43% [at 75.8 µM]"},
      {"smiles": "COc1ccc(NS(=O)(=O)c2ccc(I)cc2)cc1N1CCN(C)CC1", "activity change, negative = inhibition": "inactive: 8.02%"},
      {"smiles": "COCC1CCCN(Cc2ccc3c(c2)CN(C(=O)c2ccnn2C)CCO3)C1", "note": "(configuration not stated)", "activity change, negative = inhibition": "inactive: 22.3%"},
      {"smiles": "COc1ccc(-n2c(=O)c(-c3cccs3)nc3cnc(Nc4ccccc4)nc32)cc1", "activity change, negative = inhibition": "inactive: 46.1%"},
      {"smiles": "COc1ccc(C(=O)N2CCC3(CC2)CCN(c2ncccn2)CC3)cc1", "activity change, negative = inhibition": "inactive: 18.4%"},
      {"smiles": "CN1C(CCl)Nc2cc(Cl)c(S(N)(=O)=O)cc2S1(=O)=O", "note": "(configuration not stated)", "activity change, negative = inhibition": "inactive: 12.1%"},
      {"smiles": "c1ccc2c(CC3=NCCN3)cccc2c1", "activity change, negative = inhibition": "inactive"},
      {"smiles": "CC(=O)OCC(=O)[C@@]12OC(C)(C)O[C@@H]1C[C@H]1[C@@H]3C[C@H](F)C4=CC(=O)C=C[C@]4(C)[C@@]3(F)[C@@H](O)C[C@@]12C", "activity change, negative = inhibition": "inactive: 5.07% [at 75.8 µM]"},
      {"smiles": "Cc1cc(C)c(CN2CCC3(CCC(CNC(=O)c4ccn(C)n4)O3)CC2)cc1C", "note": "(configuration not stated)", "activity change, negative = inhibition": "inactive: -3.23%"},
      {"smiles": "O=C(c1ccc(C(F)(F)F)cc1)N(Cc1cc2ccc(F)cc2nc1N1CCOCC1)C1CC1", "activity change, negative = inhibition": "inactive: 2.46%"},
      {"smiles": "C[C@]12CCC3c4ccc(O)cc4CCC3C1CC(O)C2O", "note": "(some centres not stated)", "activity change, negative = inhibition": "inactive: 18.2%"},
      {"smiles": "O=S(=O)(c1ccccc1)N1CCC2(CCN(C(c3ccccc3)c3ccccc3)CC2)CC1", "activity change, negative = inhibition": "inactive: 10.7%"},
      {"smiles": "O=C(O)[C@@H]1C[C@H](C(=O)O)N1", "activity change, negative = inhibition": "inactive: 3.86% [at 75.8 µM]"},
      {"smiles": "N#Cc1ccccc1-c1cncnc1NCc1cccnc1", "activity change, negative = inhibition": "inactive: -16.1%"},
      {"smiles": "CCC(=O)O[C@@H]1CC(=O)O[C@H](C)C/C=C/C=C/[C@H](O)[C@H](C)C[C@H](CC=O)[C@H](O[C@@H]2O[C@H](C)[C@@H](O[C@H]3C[C@@](C)(O)[C@@H](OC(=O)CC)[C@H](C)O3)[C@H](N(C)C)[C@H]2O)[C@H]1OC", "activity change, negative = inhibition": "inactive: 13.4% [at 75.8 µM]"},
      {"smiles": "COC(=O)c1cn([C@H]2C[C@@H](C(=O)N3CCCCCC3)N(Cc3ccsc3)C2)nn1", "activity change, negative = inhibition": "inactive: 1.09%"},
      {"smiles": "COc1c(C)c2c(c(O)c1CC=C(C)CCC(=O)OCCN1CCOCC1)C(=O)OC2", "activity change, negative = inhibition": "inactive: 6.34%"},
      {"smiles": "COc1ccc(S(=O)(=O)N2c3ccc(Cl)cc3[C@@](O)(c3ccccc3Cl)[C@H]2C(=O)N2CCC[C@@H]2C(N)=O)cc1OC", "activity change, negative = inhibition": "inactive: 12.8%"},
      {"smiles": "CCc1noc(C)c1C(=O)NCCN1Cc2cc(OC)ccc2OC(CC)C1", "note": "(configuration not stated)", "activity change, negative = inhibition": "inactive: 19.3%"},
      {"smiles": "CCN(CC)CC(=O)Nc1c(C)cccc1C", "activity change, negative = inhibition": "inactive"},
      {"smiles": "COC(=O)CC1C(C)(C)C(=O)C2CC3=C(CC[C@]4(C)C3=CC(=O)OC4c3ccoc3)[C@@]1(C)C2=O", "note": "(some centres not stated)", "activity change, negative = inhibition": "inactive: 13.7%"},
      {"smiles": "Cc1ccc2ncc(C)c(/C=C/c3ccc(N(C)C)cc3)c2c1", "activity change, negative = inhibition": "inactive: -1.87%"},
      {"smiles": "CC(=O)Nc1ccc(SC[C@H](C)CN2CC[C@H](O)CCC2=O)cc1", "activity change, negative = inhibition": "inactive: 1.01%"},
      {"smiles": "O=C(c1cccc(F)c1)N1CCC2(CCCN(c3ccccn3)C2)CC1", "activity change, negative = inhibition": "inactive: 5.53%"},
      {"smiles": "O=C1NS(=O)(=O)c2ccccc21", "activity change, negative = inhibition": "inactive"},
      {"smiles": "NS(=O)(=O)c1cc2c(cc1Cl)NC(C1CC3C=CC1C3)NS2(=O)=O", "note": "(configuration not stated)", "activity change, negative = inhibition": "inactive"},
      {"smiles": "c1ccc2c(N3CCNCC3)nc(-c3ccc4c(c3)OCO4)nc2c1", "activity change, negative = inhibition": "inactive: -2.72%"},
      {"smiles": "C(=C\\c1ccc2ccccc2n1)/c1ccc2ccccc2n1", "activity change, negative = inhibition": "inactive: 19.1%"},
      {"smiles": "c1coc(CNc2ncnc3nc[nH]c23)c1", "activity change, negative = inhibition": "inactive: 13.6%"},
      {"smiles": "COc1ccc2[nH]cc(CCNc3ncncc3-c3cccc(C#N)c3)c2c1", "activity change, negative = inhibition": "inactive: -0.921%"},
      {"smiles": "S=C(S)N1CCCC1", "activity change, negative = inhibition": "inactive"},
      {"smiles": "COc1ccc(Oc2ncc3nc(-c4cc(F)cc(F)c4)c(=O)n(C)c3n2)cc1", "activity change, negative = inhibition": "inactive: 14.5%"},
      {"smiles": "COc1ccc(-c2coc3cc(OC(C)=O)cc(OC(C)=O)c3c2=O)cc1", "activity change, negative = inhibition": "inactive: 2.18%"},
      {"smiles": "NC(=O)NCCC[C@H](N)C(=O)O", "activity change, negative = inhibition": "inactive: -1.86%"},
      {"smiles": "CC(C)C[C@H]1C(=O)N2CCC[C@@H]2[C@]2(O)O[C@](NC(=O)[C@@H]3C=C4c5cccc6[nH]c(Br)c(c56)C[C@H]4N(C)C3)(C(C)C)C(=O)N12", "activity change, negative = inhibition": "inactive: 6.89%"}
    ]}
  ]
}
